In all, about 350,000 compounds went through this assay and about 9,900 (2.8%) were called active. The inconclusive results got no clear call from the source; some entries with a clear call stand among them for comparison. Calls follow the shape of the dose curve; as a rule, active = well fitted activation curve with a large enough effect; inconclusive = small, poorly fitted or top-dose-only effect; inactive = no such curve, though single readings can be large or run the other way. Potencies of inconclusive entries are left out as doubtful fits.
Experiment: A quantitative high throughput screen for small molecules that induce DNA re-replication in MCF 10a normal breast cells. Also: nearly all actives have a fitted effect of over 50% in size.
Conditions: MCF 10A DNA re-replication, Hoechst nuclear intensity, 48 h; series mostly up to 46.1 µM
Potency is read from the fitted curve at half-maximal effect; tags tell the direction and shape of the fitted curve.

Compound | Potency
CCN(CC)S(=O)(=O)c1cccc(-c2nnc(SCC(=O)c3cc(C)n(C4CC4)c3C)o2)c1 | inconclusive [activator, partial curve, poor fit]
CCCn1nc(NC(=O)CC(C)C)c2cc3cccc(C)c3nc21 | active: 10.3 µM
COc1ccc(CCNC(=O)C2CCCN(c3nc4ccccc4s3)C2)cc1OC (stereo unspecified) | inactive
Cc1ccc(-c2nnn(CC(=O)N(Cc3ccc(F)cc3)C(C(=O)NC3CCCC3)c3ccncc3)n2)o1 (stereo unspecified) | inconclusive [activator, single point]
Cc1c2cnn(CC(=O)NCCCN3CC(C)CC(C)C3)c(=O)c2c(C)n1Cc1ccccc1Cl (stereo unspecified) | inactive
COc1ccc(C2SCC(=O)N2CC23CC4CC(CC(C4)C2)C3)cc1 (stereo unspecified) | inconclusive [activator, single point]
Cc1ccc(Cl)cc1N1CCN(S(=O)(=O)c2cc3c(cc2C)NC(=O)CO3)CC1 | inconclusive [activator, partial curve, poor fit]
CCCOc1ccc2ccccc2c1/C=N/n1c(C)nnc1-n1nc(C)cc1C | active: 10.3 µM
CN1CCN(NC(=O)c2cn(-c3ccccc3)nc2-c2cccs2)CC1 | inactive
O=C(CCN1C(=O)/C(=C/c2cccs2)SC1=S)Nc1ccc(C(=O)O)cc1 | inactive
Cn1cccc1Cc1nnc(SCC(=O)N2CCc3ccccc32)n1-c1ccc(F)cc1 | inactive
BrC(/C=C\c1ccccc1)=N/Nc1nc(N2CCOCC2)nc(N2CCOCC2)n1 | active: 10.3 µM
CCCc1nc2oc3c(Cl)ncnc3c2c2c1CCCC2 | inconclusive [activator, full curve]
COc1ccc(CCNC(=O)c2cc(-c3ccc(Cl)c(Cl)c3)oc2C)cc1 | inconclusive [activator, single point]
CSc1ccc(CN2CCN(C(C)C)C(CCO)C2)cc1 (stereo unspecified) | inactive
CCN(CC)c1ncn(Cc2c(Cl)cccc2Cl)c2ncnc1-2 | inconclusive [activator, partial curve]
Cc1ccc(C)c(S(=O)(=O)N2CCCC2CNC(=O)C(=O)NCCc2ccco2)c1 (stereo unspecified) | inconclusive [activator, single point]
Cc1ccccc1C(=O)Nc1cccc(NC(=O)c2ccc(-c3ccc(Br)cc3)o2)c1 | inconclusive [activator, single point]
Cc1cc(C(=O)COc2ccccc2C(N)=O)c(C)n1C1CC1 | active: 0.58 µM
O=C1CCCN1CCNC(=S)Nc1ccccc1 | inactive
CCC(=O)Nc1cccc(-c2nnc(-c3ccccc3)o2)c1 | inactive
CCSc1nnc(NC(=O)NC(C)(C(F)(F)F)C(F)(F)F)s1 | inconclusive [activator, single point]
C=CCNc1nc(-c2ccccc2)c(C(=O)OCC)cc1C#N | active: 14.6 µM
Cc1ccc(CS(=O)(=O)Cc2ccc(C(=O)NCc3ccccn3)o2)cc1 | inconclusive [activator, single point]

Compound | Potency
Cc1cc(C(c2ccc(O)cc2)c2cc(C)c(O)cc2C)c(C)cc1O | inconclusive [activator, partial curve, poor fit]
O=C(CN1CCN(c2ccccc2)CC1)Nc1ccccc1Sc1ccccc1 | inconclusive [activator, single point]
Cc1nc2c(-c3ccccc3)c[nH]n2c(=O)c1Cc1ccccc1 | inconclusive [activator, partial curve, poor fit]
CC(C)(C)NC(=O)C(c1ccco1)N(C(=O)c1csnn1)c1ccccc1 (stereo unspecified) | inactive
O=C(C[n+]1cc(-c2ccc(F)cc2)n2c1CCC2)N1c2ccccc2Sc2ccccc21 | inconclusive [activator, single point]
Cc1ccc(C(=O)N2CCC3(CC2)Oc2ccc(Cl)cc2C(=O)C32CC(c3ccccc3)=NO2)s1 (stereo unspecified) | inconclusive [activator, full curve, poor fit]
COc1cc(C(C[N+](=O)[O-])c2c(C)cc3ccccn23)ccc1O (stereo unspecified) | inconclusive [activator, partial curve, poor fit]
C=CCn1c(CNc2ccccc2)nnc1SCC(=O)N/N=C/c1ccccc1O | inactive
CC1CCN(c2ccccc2NC(=O)c2ccc(Br)o2)CC1 | inconclusive [activator, single point]
Cc1ccccc1CN(c1ccc(C(=O)N2CCCC2)cc1)S(C)(=O)=O | inconclusive [activator, partial curve, poor fit]
CC(C)(C)NS(=O)(=O)c1cc(C(=O)Nc2sccc2C#N)ccc1Cl | inconclusive [activator, single point]
COc1ccc(S(=O)(=O)NCC2CCCN(Cc3cccc(C(C)=O)c3)C2)cc1 (stereo unspecified) | inconclusive [activator, single point]
CC(C)c1ccccc1NC(=O)COC(=O)/C=C/c1cccc([N+](=O)[O-])c1 | inconclusive [activator, single point]
O=C(NCC1CCCO1)C(=O)N/N=C/c1cccc(Cl)c1 (stereo unspecified) | inactive
COc1cc2[nH]c3ccccc3c2cc1C | inconclusive [activator, partial curve, poor fit]
C=C1C(=O)OC2C1C(OC(=O)C(C)=CC)CC(=C)C1C(O)C3OC3(C)C21O (stereo unspecified) | active: 13 µM
Cc1ccc(Cn2c(=N)n(CC(=O)c3ccc([N+](=O)[O-])cc3)c3ccccc32)cc1 | active: 9.2 µM
Cc1ccc2c(c1)C1CN(C)CCC1N2C(=O)COc1ccc(N(C)S(=O)(=O)c2cccs2)cc1 (stereo unspecified) | inactive
COc1ccc(C(=O)NCCn2cc(SCC(=O)Nc3nnc(C)s3)c3ccccc32)cc1 | inconclusive [activator, partial curve, poor fit]
CN(CC(=O)OCC(=O)Nc1ccccc1)S(=O)(=O)c1ccc(Cl)cc1 | inconclusive [activator, full curve, poor fit]
CC(=O)N(c1ccccc1)c1nc2ccccc2s1 | inconclusive [activator, full curve]
O=C1c2ccccc2NC(c2ccc(-c3cccs3)o2)N1O (stereo unspecified) | inactive
CCOc1ccc2nc(N(CCN(CC)CC)C(=O)c3cccc([N+](=O)[O-])c3)sc2c1 | inconclusive [activator, single point]
N#Cc1nc(Cc2cccc3ccccc23)oc1N1CCN(c2ccccc2)CC1 | inactive

Compound | Potency
C=CCOc1nc2c(c(=O)n(C)c(=O)n2C)n1Cc1ccc(Cl)cc1 | inactive
COc1ccc2c(C)nc(Nc3nc(-c4ccccc4)cc(=O)[nH]3)nc2c1 | active: 4.61 µM
O=c1c([N+](=O)[O-])cn(Cc2ccccc2)c(=O)n1Cc1ccccc1 | inconclusive [activator, partial curve, poor fit]
CSc1nc(-c2ccc(Cl)cc2)nc(N)c1C#N | inconclusive [activator, single point]
O=C(Cn1ncn2nc(-c3ccccc3)cc2c1=O)NCc1ccccn1 | inactive
CNS(=O)(=O)c1cc(Nc2ncnc3sccc23)ccc1C | inactive
Cc1ccc(-n2c(SCc3ccc([N+](=O)[O-])cc3)nc3ccccc3c2=O)cc1 | inconclusive [activator, partial curve, poor fit]
O=C(COC(=O)CNC(=O)C1CCCCC1)Nc1ccc(Br)cc1Br | inactive
Cc1ccc(C)c(Nc2c(F)c(F)c(F)c(F)c2C(=O)O)c1 | inconclusive [activator, single point]
CC(Sc1nnnn1-c1ccccc1)C(=O)NC1CCCC1 (stereo unspecified) | inactive
O=C(Cc1ccc2c(c1)OCCO2)Nc1cccc(S(=O)(=O)N2CCOCC2)c1 | inactive
CC1CCCC/C1=N/Nc1ccc([N+](=O)[O-])cc1[N+](=O)[O-] (stereo unspecified) | inactive
CNC(=O)c1c(NC(=O)c2ccco2)sc(C)c1C | inconclusive [activator, partial curve, poor fit]
Cc1ccn2cc(-c3cccc(S(=O)(=O)N4CCCCC4)c3)nc2c1 | inconclusive [activator, partial curve, poor fit]
N#CCCn1cc(/C=N/NC(N)=S)c(-c2ccccc2)n1 | inconclusive [activator, partial curve, poor fit]
CCN(CC)c1ccc2cc(C(N)=O)/c(=N\NC(=O)c3ccncc3)oc2c1 | inconclusive [activator, single point]
c1ccc2c(Nc3ccc(N4CCOCC4)cc3)nc(N3CCOCC3)nc2c1 | inconclusive [activator, full curve, poor fit]
COc1ccc(C(=O)N(CC(=O)Nc2sc(C)c(C)c2C(N)=O)C2CCCC2)cc1 | inactive
CC(C)Cn1c(=O)c(C(=O)Nc2ccncc2)c(O)c2ccccc21 | inconclusive [activator, single point]
COc1cccc(NC(=O)c2ccc(NCCCN3CCC(C)CC3)c([N+](=O)[O-])c2)c1 | inactive
COc1ccc(C(=O)Nc2ccc(S(=O)(=O)N3CCc4ccccc43)cc2)cc1 | inconclusive [activator, partial curve]
O=C(CN1C(=O)NC2(CCCC2)C1=O)NC(c1ccccc1)c1ccccc1 | inactive
COC(=O)[C@@]1(C)[C@H]2C(=O)N(C)C(=O)[C@H]2[C@H]2CN=C(SCc3ccc(C#N)cc3)N21 | inconclusive [activator, full curve, poor fit]
